From ChEMBL document CHEMBL4888484, “Replenishing the malaria drug discovery pipeline: Screening and hit evaluation of the MMV Hit Generation Library 1 (HGL1) against asexual blood stage Plasmodium falciparum ,using a nano luciferase reporter read-out” (2022)
Screen size: about 150,000 compounds; about 540 (0.36%) showed an effect of 50% or more. This is one part of the list.

These molecules were tested on Plasmodium falciparum (assay: Primary screen in NF54 nanoGlo assay, in single point, at 2uM, 72h; a lower Z score goes with more inhibition). Settings: timepoint 72 hour.
Assay type: functional, Erythrocyte
In the case of `O=c1[nH]c(NC2CCCCC2)nc(=O)c2c1ncn2CCCc1ccccc1`, the “% Inhibition” value is reported as -1% and the Z score is reported as 0.16. `CCn1ncc(C)c1NC(=O)CN1CCOC1=O` was tested, and the “% Inhibition” value was -7% and the Z score was 1.38. `COc1ccc(C(=O)N2CC(n3cc(C(=O)N(C)C)nn3)C2)cc1F` was tested, and the “% Inhibition” value was -9% and the Z score was 1.67. In the case of `O=C1CC[C@]2(C(=O)Nc3ccc(F)cc3)CCCC=C2N1C1CCCC1`, the “% Inhibition” value is reported as 4% and the Z score is reported as -0.6. `CCc1ncc(CN2CCC[C@H](NC(=O)CN3CCOC3=O)CC2)cn1` was tested, and the “% Inhibition” value was 9% and the Z score was -1.74. For `N#Cc1ccc(OC[C@H](O)COc2cccc(-n3ccnc3)c2)cc1`, the “% Inhibition” value was -21% and the Z score was 1.9. With `COc1ccc(Nc2cc(Nc3ccc(OC)cc3)n(C(=O)C3CCCCC3)n2)cc1` the “% Inhibition” value was 26% and the Z score was -2.95. For `COCCN1C(=O)N[C@@](Cc2ccccc2Cl)(C2CCN(C(=O)C(=O)CC(C)C)CC2)C1=O`, the “% Inhibition” value was 10% and the Z score was -1.88. `COCCCCN1CCN(C(=O)c2[nH]cnc2C)CC1` was tested, and the “% Inhibition” value was -18% and the Z score was 1.93. In the case of `CC(C)n1nnnc1N1CCN(C(=O)C(=O)NC2CC2)CC1`, the “% Inhibition” value is reported as -3% and the Z score is reported as 0.63. In the case of `Cc1cnn(Cc2c(C(=O)N3C[C@H]4CCCC(=O)N[C@H]4C3)noc2C)c1`, the “% Inhibition” value is reported as 31% and the Z score is reported as -3.49. In the case of `Cc1cccc(C(=O)N2CC3(C[C@@H](c4nnc(-c5ccccc5)o4)N(C)C3)C2)n1`, the “% Inhibition” value is reported as 10% and the Z score is reported as -1.16. With `CC1=CCN(C(=O)Nc2cc(N3CCOCC3)ccc2Cl)CC1` the “% Inhibition” value was -1% and the Z score was 0.06. `O=C(Nc1ccc2c(c1)OCCCO2)c1csc(-c2cccs2)n1` was tested, and the “% Inhibition” value was -28% and the Z score was 3.31. In the case of `O=C(c1cc(Cl)ccc1Cl)N1CC[C@H](c2ccccn2)C1`, the “% Inhibition” value is reported as -5% and the Z score is reported as 0.87. In the case of `Cc1cnc(C(=O)N2CCC(c3nc4cc(Cl)ccc4o3)CC2)c(O)c1`, the “% Inhibition” value is reported as -5% and the Z score is reported as 0.79. `c1nc(N[C@@H]2COCC[C@@H]2OCc2cscn2)c2sccc2n1` was tested, and the “% Inhibition” value was -12% and the Z score was 1.18. With `O=C(Cc1c[nH]c2ccccc12)N1CCc2nocc2C1` the “% Inhibition” value was -13% and the Z score was 1.67. With `C[C@]1(O)CCN(c2cccc(C#N)n2)C[C@H]1Cc1ccccc1` the “% Inhibition” value was -11% and the Z score was 1.42. With `CCS(=O)(=O)N1CC(=O)N(Cc2ccccc2Cl)[C@](C)(C(=O)NCc2ccccc2OC)C1` the “% Inhibition” value was -17% and the Z score was 2.17. With `COc1ccc(C(=O)NCCc2c[nH]c3ccccc23)cc1OC1CCN(C(C)C)CC1` the “% Inhibition” value was -8% and the Z score was 1.53. `CCS(=O)(=O)N1C[C@H](c2nc(-c3ccc(F)cc3)no2)C2(CCOCC2)C1` was tested, and the “% Inhibition” value was -3% and the Z score was 0.64. In the case of `C[C@@H](Cc1csc2ccccc12)NC(=O)c1c(F)cccc1Cl`, the “% Inhibition” value is reported as 6% and the Z score is reported as -0.74. `c1ccc(C2(c3ccccc3)O[C@@H](c3cccnc3)Nc3ccccc32)cc1` was tested, and the “% Inhibition” value was -4% and the Z score was 0.54. For `O=C(NCc1nnc([C@@H]2CCCO2)[nH]1)c1cccc(Cl)c1`, the “% Inhibition” value was 2% and the Z score was -0.36. `O=C(NC1CC1)[C@H]1CCCN(C2CCN(c3nc4ccccc4o3)CC2)C1` was tested, and the “% Inhibition” value was 2% and the Z score was -0.25. In the case of `CN(Cc1ccccc1)C1CN(C(=O)[C@H]2CCCO2)C1`, the “% Inhibition” value is reported as 2% and the Z score is reported as -0.21. `CC(NC(=O)C1(C(=O)NC(C)C2CC2)CCC1)C1CC1` (stereo unspecified) was tested, and the “% Inhibition” value was 3% and the Z score was -0.29. `CCN1C[C@@H](NC(=O)COCC(F)(F)C(F)F)CC1=O` was tested, and the “% Inhibition” value was -3% and the Z score was 0.61. With `COc1ccc(NC(=O)c2sc(NC3CCCCC3)nc2C)cc1OC` the “% Inhibition” value was -8% and the Z score was 1.33. `Cc1csc(NC(=O)[C@H](C)S(C)(=O)=O)n1` was tested, and the “% Inhibition” value was 4% and the Z score was -0.72. In the case of `CC(=O)N[C@H]1C[C@H](c2nnc(COc3ccc4c(c3)OCO4)n2C)C1`, the “% Inhibition” value is reported as 0% and the Z score is reported as -0.03. With `Cc1ccc(OCCN2CC[C@H](CO)[C@@H](O)C2)c(Cl)c1` the “% Inhibition” value was -3% and the Z score was 0.59. For `Cc1ccc2nc(-c3ccc(F)cc3)c(CN(C)Cc3ccno3)cc2c1`, the “% Inhibition” value was -11% and the Z score was 0.97. In the case of `Cc1ccc(NS(=O)(=O)c2ccc(NC(=O)c3ccsc3)cc2)cc1C`, the “% Inhibition” value is reported as -11% and the Z score is reported as 0.98. For `CC(C)C(=O)N1CCCC(C(=O)NC(c2nc(-c3nnc[nH]3)no2)C(C)(C)C)C1` (stereo unspecified), the “% Inhibition” value was -7% and the Z score was 0.71. In the case of `O=C(N[C@H]1CCO[C@@H]1c1cc[nH]n1)c1cnc2ccsc2c1`, the “% Inhibition” value is reported as -4% and the Z score is reported as 0.67. With `Cc1cc(C)c(C(=O)N2CC(CN3C(=O)CCC3=O)C2)c(C)c1` the “% Inhibition” value was -21% and the Z score was 2.64. With `Cc1[nH]c(=O)n(Cc2ccccc2)c(=O)c1CC(=O)O` the “% Inhibition” value was -1% and the Z score was 0.13. With `COCCNC(=O)N1CCCC[C@@H]1C` the “% Inhibition” value was 2% and the Z score was -0.37. In the case of `O=C1CCN(Cc2ccc3c(c2)CCO3)CCCCCCN1`, the “% Inhibition” value is reported as -4% and the Z score is reported as 0.71. For `COc1ccc(Br)c([C@H](CO)N(C)C(=O)CC#N)c1`, the “% Inhibition” value was -4% and the Z score was 0.73. `Cc1nn(-c2ccc(Cl)cc2)cc1C(=O)NC1(C)CCOCC1` was tested, and the “% Inhibition” value was -8% and the Z score was 1.52. In the case of `O=C(c1ccc(Cl)c(F)c1)N1CCN2CCC[C@H]2C1`, the “% Inhibition” value is reported as -2% and the Z score is reported as 0.42. `Cc1c(CC(=O)N2CC(O)C2)c2c(n1Cc1ccccc1F)CCCC2=O` was tested, and the “% Inhibition” value was -10% and the Z score was 1.6. For `O=C(Nc1ccc(-c2cn3c(n2)CCCC3)cc1)[C@@H]1CC=CCC1`, the “% Inhibition” value was -11% and the Z score was 0.96. `CC(C)[C@](C)(NCc1ncc(Cl)s1)C(N)=O` was tested, and the “% Inhibition” value was 4% and the Z score was -0.7. With `Cc1[nH]ccc1C(=O)N1CCN(c2ccc(C(=O)O)cc2)CC1` the “% Inhibition” value was 2% and the Z score was -0.29. With `C[C@H](NC(=O)CCc1csc(N)n1)c1nc2c(s1)CCCC2` the “% Inhibition” value was -10% and the Z score was 1.53. With `Cc1cc(OC(F)F)c(C(=O)NC(C)CCC2CCCO2)s1` (stereo unspecified) the “% Inhibition” value was 43% and the Z score was -4.11. In the case of `C[C@H]1CCCN(c2ncnc(Oc3ccc(F)cc3)c2N)C1`, the “% Inhibition” value is reported as 5% and the Z score is reported as -0.71. For `Cc1ccc(-c2noc(-c3ccccc3S(=O)(=O)NCc3ccc(N(C)C)cc3)n2)cc1`, the “% Inhibition” value was -5% and the Z score was 0.87. With `CN(C)S(=O)(=O)N1C[C@H]2CC[C@@H](C1)N(C(=O)Cc1cccc(O)c1)C2` the “% Inhibition” value was 0% and the Z score was 0. `CC1CC(CN(C)Cc2cnn(C)c2)CCN1C(=O)OC(C)(C)C` (stereo unspecified) was tested, and the “% Inhibition” value was 5% and the Z score was -0.68. For `CC1CC1C(=O)Nc1cc(F)ccc1NC(=O)c1ccccn1` (stereo unspecified), the “% Inhibition” value was 34% and the Z score was -4.94. `CC(C)(C)N[C@H]1CC(=O)N(c2ccc3c(c2)OCO3)C1=O` was tested, and the “% Inhibition” value was -3% and the Z score was 0.51. In the case of `O=S1(=O)C[C@H](NC2CCCCCC2)[C@@H](S(=O)(=O)c2cccs2)C1`, the “% Inhibition” value is reported as 1% and the Z score is reported as -0.17. `O=C(CC1CCC(F)(F)CC1)Nc1ccc2c(c1F)CCNC2` was tested, and the “% Inhibition” value was -13% and the Z score was 1.83. `Cc1cc(=O)c(C(=O)NCCc2ccccn2)c(Cc2cccc(F)c2)n1CCCN1CCOCC1` was tested, and the “% Inhibition” value was 1% and the Z score was -0.07. In the case of `Cc1nn(C)c(C)c1CCCN[C@@H](C)c1cccc(O)c1`, the “% Inhibition” value is reported as 30% and the Z score is reported as -0.4. For `COc1ccccc1-c1n[nH]cc1CN1CCC[C@H](C(=O)NCc2ccccc2)CCNC(=O)CC1`, the “% Inhibition” value was -16% and the Z score was 2.09. With `COc1ccc(-c2c[n+]3ccccc3c(=O)[nH]2)cc1` the “% Inhibition” value was -18% and the Z score was 2.11. For `C[C@@H](CCCC(C)(C)O)CCN1CCCNC(=O)C1`, the “% Inhibition” value was 1% and the Z score was -0.24. In the case of `COc1ccc(CCNC(=O)CN(C)CCc2ccc(OC)c(OC)c2)cc1OC`, the “% Inhibition” value is reported as 3% and the Z score is reported as -0.46. `CC(C)n1c(CCNC(=O)Cc2ccccc2F)nc2cccnc21` was tested, and the “% Inhibition” value was -7% and the Z score was 1.18. With `COc1cc(NC(=O)c2ccc(Oc3ccnc(-c4ccc(C)cc4)n3)cc2)cc(OC)c1` the “% Inhibition” value was -11% and the Z score was 1.48. In the case of `Cc1cnc(NC(=O)[C@@H]2Cc3ccccc3O2)s1`, the “% Inhibition” value is reported as -10% and the Z score is reported as 1.86. In the case of `COc1ccc(Cl)cc1C(=O)NC(Cc1ccccn1)[C@H]1C[C@@H](O)C1` (stereo partly specified), the “% Inhibition” value is reported as -2% and the Z score is reported as 0.28. With `COc1cc(C(=O)[C@@H]2CC(=O)Nc3[nH]nc(C)c32)ccc1F` the “% Inhibition” value was -7% and the Z score was 0.91. In the case of `Cc1nc(C(=O)N2CCC(c3c(C)[nH]c4ccccc34)CC2)no1`, the “% Inhibition” value is reported as 23% and the Z score is reported as -2.6. For `N#CCn1cccc1-c1nc(-c2ccncc2)no1`, the “% Inhibition” value was -4% and the Z score was 0.69. `COc1cccc2c1OC1(C)CC2C(S(=O)(=O)c2ccc(Cl)cc2)C(=O)N1` (stereo unspecified) was tested, and the “% Inhibition” value was -3% and the Z score was 0.53. With `Cc1ccc(Cl)c(NC(=O)NC(C)(C)CCS(C)(=O)=O)c1` the “% Inhibition” value was 11% and the Z score was -0.97. For `CCc1ccc(Cn2nc(C)nc2[C@]2(C)CCCN2)cc1`, the “% Inhibition” value was -15% and the Z score was 2.95. For `CCCc1cnc(C)nc1-c1cc(NCC(=O)O)nc2[nH]ccc12`, the “% Inhibition” value was -17% and the Z score was 1.91. For `Cc1n[nH]c(C)c1[C@@H](NC(N)=O)c1ccco1`, the “% Inhibition” value was 0% and the Z score was 0.02. With `CC(C)c1cc(-c2nc([C@H]3CCC(=O)NC3)no2)n[nH]1` the “% Inhibition” value was -10% and the Z score was 1.48. For `CCn1ncc(NC(=O)c2ccc(Cl)cc2)c(N2CCOCC2)c1=O`, the “% Inhibition” value was -8% and the Z score was 1.61. For `CCN1CCN(C2CN(S(=O)(=O)c3cc(C)cc(F)c3)C2)CC1`, the “% Inhibition” value was 3% and the Z score was -0.47. With `O=C(COC1CCCC1)NC(c1ccc(F)cc1)C1CCCO1` (stereo unspecified) the “% Inhibition” value was -10% and the Z score was 1.05. `COc1cc(C(=O)N2CCC(c3noc(-c4cccc(F)c4)n3)CC2)cc(OC)c1OC` was tested, and the “% Inhibition” value was -9% and the Z score was 1.22. `CC(C)(C)c1nc(C#N)c(NC[C@@H](c2ccco2)N2CCOCC2)o1` was tested, and the “% Inhibition” value was -4% and the Z score was 0.56. In the case of `CN1CC2(CCN(Cc3ccc(C(F)(F)F)cc3)CC2)C[C@H]1C(=O)N1CCOCC1`, the “% Inhibition” value is reported as 13% and the Z score is reported as -1.96.
